Laboratory results from PubChem BioAssay AID504332 (National Center for Advancing Translational Sciences (NCATS), 2011).
In all, about 350,000 compounds went through this assay and about 31,000 (8.9%) were called active. Inconclusive means that the source gave no clear call. Such entries were picked first, then a sample of the others. Calls come from the whole dose curve; as a rule, active = well fitted inhibition curve with a large enough effect; inconclusive = small, poorly fitted or top-dose-only effect; inactive = no such curve, though single readings can be large or run the other way. Potencies beside an inconclusive call are fits to weak or partial responses and may not hold up.

Target: Histone-lysine N-methyltransferase EHMT2 (Homo sapiens) (UniProt Q96KQ7)
Assay: qHTS Assay for Inhibitors of Histone Lysine Methyltransferase G9a; note: nearly all actives have a fitted effect of over 75% in size
Settings: G9a H3K9 monomethylation, AlphaScreen, 2 h; activity, negative = inhibition: at 59 µM (top of the series) unless noted
How it was run: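 Methyltransferase reactions run at room temperature for 2 h (20 nM enzyme, 500 nM biotin-H3K9 peptide, 20 uM SAM) after a 15 min compound preincubation; product detected by AlphaScreen beads and anti-H3K9me1 antibody.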
% is set by controls: 0 for no effect and ±100 for the full control effect; potency is the fitted concentration of half-maximal effect; tags give direction and shape of the fitted curve.

Chain of UniProt Q96KQ7 (Q96KQ7 whole entry, looked up): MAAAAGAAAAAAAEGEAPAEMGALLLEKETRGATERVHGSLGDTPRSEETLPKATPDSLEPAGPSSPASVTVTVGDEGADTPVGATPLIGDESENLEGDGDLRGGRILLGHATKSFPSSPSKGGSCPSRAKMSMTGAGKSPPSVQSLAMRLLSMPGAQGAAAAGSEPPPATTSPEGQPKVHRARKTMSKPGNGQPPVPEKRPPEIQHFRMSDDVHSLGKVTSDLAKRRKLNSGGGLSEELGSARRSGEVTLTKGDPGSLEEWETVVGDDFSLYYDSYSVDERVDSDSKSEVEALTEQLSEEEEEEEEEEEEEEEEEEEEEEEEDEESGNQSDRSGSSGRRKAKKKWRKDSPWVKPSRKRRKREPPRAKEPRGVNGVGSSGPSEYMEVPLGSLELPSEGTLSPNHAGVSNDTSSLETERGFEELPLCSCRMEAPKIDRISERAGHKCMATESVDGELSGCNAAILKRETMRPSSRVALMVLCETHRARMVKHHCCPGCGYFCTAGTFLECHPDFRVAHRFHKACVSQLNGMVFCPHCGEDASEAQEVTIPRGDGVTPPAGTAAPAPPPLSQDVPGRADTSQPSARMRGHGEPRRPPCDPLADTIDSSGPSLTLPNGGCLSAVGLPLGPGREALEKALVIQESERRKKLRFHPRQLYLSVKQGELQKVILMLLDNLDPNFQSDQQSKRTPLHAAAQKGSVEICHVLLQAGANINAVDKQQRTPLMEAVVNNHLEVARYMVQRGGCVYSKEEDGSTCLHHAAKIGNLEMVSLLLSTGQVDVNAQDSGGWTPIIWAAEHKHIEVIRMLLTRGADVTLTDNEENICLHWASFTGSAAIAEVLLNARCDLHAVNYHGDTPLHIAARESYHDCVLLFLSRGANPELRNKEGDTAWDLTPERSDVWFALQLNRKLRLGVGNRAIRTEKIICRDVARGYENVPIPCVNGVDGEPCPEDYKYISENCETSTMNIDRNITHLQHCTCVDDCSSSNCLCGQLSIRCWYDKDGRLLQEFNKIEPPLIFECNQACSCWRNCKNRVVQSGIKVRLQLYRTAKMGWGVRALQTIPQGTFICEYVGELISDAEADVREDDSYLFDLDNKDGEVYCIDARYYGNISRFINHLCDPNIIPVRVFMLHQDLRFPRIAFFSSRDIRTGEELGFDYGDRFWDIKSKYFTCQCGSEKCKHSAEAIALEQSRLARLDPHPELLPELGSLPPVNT

Row | SMILES | activity, negative = inhibition | Potency
1 | CCCC[C@@H]1CNCCN1CC1(c2ccccc2)CC1 | inconclusive: -101% [inhibitor] [at 2.33 µM] | 
2 | FC(F)(F)c1ccc(/C=N/N2CCN(Cc3cccc4ccccc34)CC2)cc1 | inactive: -12% [at 102 µM] | 
3 | O=C(COc1ccccc1Cl)Nc1ccc(S(=O)(=O)N2CCOCC2)cc1 | inactive: -10.3% [at 102 µM] | 
4 | COc1cccc(C2c3c(oc4ccc(F)cc4c3=O)C(=O)N2CCCN2CCOCC2)c1 (stereo not given) |  | inconclusive: 79.4 µM [inhibitor, single point]
5 | CC(=O)c1c(C)[nH]c(C(=O)O)c1C | inactive: 10.3% [at 102 µM] | 
6 | O=C1CCCC2=C1C(c1ccc(O)cc1)c1c(ccc3ccccc13)N2 (stereo not given) |  | inconclusive: 70.8 µM [inhibitor, single point]
7 | CCc1cc(=O)oc2cc(OCC(=O)O)c(Cl)cc12 |  | inconclusive: 11.2 µM [inhibitor, partial curve]
8 | ClC(Cl)(Cl)c1nc2ccccc2n2nncc12 |  | inconclusive: 56.2 µM [inhibitor, partial curve, poor fit]
9 | CS(=O)(=O)c1ccc(C(=O)N(Cc2ccccc2)c2ccccc2)cc1 |  | active: 44.7 µM
10 | COc1ccccc1-c1ccc(/C=C2\C=CC(=O)O2)o1 |  | inconclusive: 79.4 µM [inhibitor, single point]
11 | Cc1cccc(NC(=O)CSc2nc(N)c(NC(=O)c3cccs3)c(=O)[nH]2)c1C |  | inconclusive: 89.1 µM [inhibitor, single point]
12 | CC(C)(C)C(=O)NC1(C(F)(F)F)C(=O)Nc2c1c(=O)[nH]c(=O)n2Cc1ccco1 (stereo not given) |  | inconclusive: 89.1 µM [inhibitor, single point]
13 | COc1ccc(NCC(=O)N/N=C/c2ccc3c(c2)OCCO3)cc1 |  | inconclusive: 2.51 µM [inhibitor, partial curve, poor fit]
14 | CCOC(=O)c1sc2nc(-c3ccco3)c3c(c2c1N)CC(C)(C)OC3 |  | inconclusive: 1.78 µM [inhibitor, full curve, poor fit]
15 | O=C(CSc1cn(CC(=O)N2CCCCC2)c2ccccc12)NCC1CCCO1 (stereo not given) | inactive: -37.3% [at 102 µM] | 
16 | Cc1ccc(C)c(S(=O)(=O)N=Nc2c(O)[nH]c3ccccc23)c1 |  | active: 8.91 µM
17 | Cc1ccc(NCc2nc3ccccc3n2CCOc2ccccc2)cc1 |  | active: 2.24 µM
18 | COc1ccc(N2CCN(C(=O)c3sc4ncn(CC(=O)N5CCCCC5)c(=O)c4c3C)CC2)cc1 |  | inconclusive: 89.1 µM [inhibitor, single point]

Row | SMILES | activity, negative = inhibition | Potency
19 | O=c1cc(CO)oc(CN2CCN(c3ccccc3F)CC2)c1O | inconclusive: -84.7% [inhibitor] | 
20 | O=C(O)c1ccc(Cl)c(S(=O)(=O)Nc2ccc(S(=O)(=O)Nc3cccc(Cl)c3)cc2)c1 |  | active: 56.2 µM
21 | O=C(COc1cccc(F)c1)NNC(=O)Cc1ccc(S(=O)(=O)N2CCOCC2)s1 |  | inconclusive: 1.26 µM [inhibitor, partial curve, poor fit]
22 | COc1ccccc1CCNC(=O)C(=O)NCC(c1ccco1)S(=O)(=O)c1ccc(C)cc1 (stereo not given) | inactive: 2.08% | 
23 | Cc1cccc(-n2c(O)c(/C=N/NC(=O)c3ccccc3Cl)c3ccccc3c2=O)n1 |  | inconclusive: 89.1 µM [inhibitor, single point]
24 | CCOc1cc(C2/C(=C(/O)c3ccc(OC(C)C)cc3)C(=O)C(=O)N2CCCOC)ccc1O (stereo not given) | inconclusive: -51.6% [inhibitor] | 
25 | CC1CCCCN1S(=O)(=O)c1ccc(C(=O)N2CCOCC2)cc1 (stereo not given) |  | active: 56.2 µM
26 | Cc1ccc(-c2nc(CS(=O)CC(=O)N3CCN(c4ccc(Cl)cc4)CC3)c(C)o2)cc1 (stereo not given) |  | inconclusive: 31.6 µM [inhibitor, single point]
27 | CN(C)S(=O)(=O)c1ccc2c(c1)N(CC(=O)N1CCN(c3ccc(F)cc3)CC1)CCS2 | inactive: -26.9% | 
28 | CN(CC(=O)NC(=O)NCc1ccccc1)Cc1ccc(Cl)cc1 |  | active: 44.7 µM
29 | O=C(Nc1ccnc(-c2cccnc2)n1)c1ccc(F)cc1 |  | inconclusive: 17.8 µM [inhibitor, partial curve, poor fit]
30 | CC(=O)N1CCSc2ccc(S(=O)(=O)N3CCC(C)CC3)cc21 | inactive: 9.52% [at 102 µM] | 
31 | CCCC(=O)Nc1ccccc1-c1nnc(SC)[nH]c1=O |  | inconclusive: 100 µM [inhibitor, single point]
32 | COc1ccccc1-c1nnc(C2CCN(C(=O)c3ccc(C)cc3)CC2)o1 | inactive: 7.22% | 
33 | CCCCN(C)C(=S)Nc1ccc2nc(N3CCN(CC)CC3)cc(C)c2c1 |  | active: 44.7 µM
34 | CCOC(=O)c1ccc(NC(=S)NC(=O)c2cncc(Br)c2)cc1 |  | inconclusive: 89.1 µM [inhibitor, single point]
35 | COc1ccc(NS(=O)(=O)c2ccc(C)c(C(=O)NCCCN3CCCC3=O)c2)cc1 | inactive: -0.949% [at 12.7 µM] | 
